From a collection of fitness landscapes (doi:10.1016/j.celrep.2020.107928)
In all, about 81,000 sequences were measured (“one-hybrid fitness for binding parS DNA”: median about -0.17, highest 2% from about 0.51 on). Some of the results follow.

B1: Caulobacter ParB omega fusion; a variant is named by its letters at X, in order, B8GW30 (parent)
chain: MESVVVGEPGMSEGRRGLGRGLSALLGEVDAAPAQAPGEQLGGSREAPIEILQRNPDQPRRTFREEDLEDLSNSIREKGVLQPILVRPSPDTAGEYQIVAGERAWRAAQRAGLKTVPIMVRELDDLAVLEIGIIENVQRADLNVLEEALSYKVLMEKFERTQENIAQTIGKSXSHVANXMRLLXLPDEVQSYLVSGELTAXHARAIAAAADPVALAKQIIEGGLSVRETEALARKAPNLSAGKSKGGRPPRVKDTDTQALESDLSSVLGLDVSIDHRGSTGTLTITYATLEQLDDLCNRLTRGI

Variants of: B1
Experiment: one-hybrid fitness for binding parS DNA (scaled: cognate 1, non-cognate 0); higher = stronger binding
Conditions: with parS DNA site
Procedure, shortened: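 Fitness is the rescaled log change in variant-to-wild-type read ratio, measured by Illumina sequencing of plasmids before and after bacterial one-hybrid selection. The scale puts cognate at 1 and non-cognate at 0. Selection of Caulobacter ParB libraries, four specificity codons randomised, took place in E. coli USO with a HIS3 reporter, site 19 bp from the promoter, over 48 hours at 37°C on M9-minus-histidine with 0.1 mM IPTG and 5 mM 3-AT.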

one-hybrid fitness for binding parS DNA, 0.601:
RGST

one-hybrid fitness for binding parS DNA, 0.202:
RKSM

one-hybrid fitness for binding parS DNA, 0.229:
RMMI

one-hybrid fitness for binding parS DNA, ≤ 0.2:
RIYV
EELS
QFCV
IIVS
PHIN
PISP
VGLV
VHAA
YMDW
GQHG
TVIT
GNIR
LIES
LTQP
QNCK
EMPW
HFDP
DEYT
DCQT
YLWG
WFPH
DPYV
NRRG
VWGS
AFYG
PTDG
FTWR
NYYC
SRGY
TMKT
PFAR
PNTK
TEED
DDAI
LGGK
VPAC
SWQF
TATD
IFDG
FSMG
QHVA
HAQP
SWRA
QCMS
APAT
TPIR
NNAR
KCKA
PERL
DIPA
SKSR
PPTI
PMLA
AAVY
RQCL
MVST
AIWS
ESTN
HTRR
VAFR
HFRS
FLAR
RNYF
ARAP
HAFS
TDEV
PCHS
DMHR
PFMY
PICS
STWE
MKTA
WATG
QPTG
QENR
KRLW
DYTS
MNVC
NARW
RNYW
SDAA
HGLV
HYRI
LRWT
NDPI
SEWA
VHKR
MDVV
YMMR
LHHV
DMAV
NNQI
MITL
SASS
EHTV
SEES
AYGR
LPTD
AMGT
METR
ERAD
CVHS
DGSF
KAPG
THYE
IGVF
SIGG
TTLF
EHRL
MIGR
KGNI
VHPN
RKCI
EVSH
WSIE
PVGE
EAAI
VADR
RHHW
FNTV
LFDL
ETYI
IPNT
DYKV
YIHV
SGPM
QISM
TDER
PSCC
FPTA
TGFS
FSPN
VELR
HLRN
LGHG
TEVF
PKWG
QSFA
SVYC
ARDT
MQSW
HCPM
SRVV
YGLS
FHEG

one-hybrid fitness for binding parS DNA, 0.26:
YDCR

one-hybrid fitness for binding parS DNA, 0.722:
RWRT

one-hybrid fitness for binding parS DNA, 0.372:
RKMN

one-hybrid fitness for binding parS DNA, 0.502:
RFPG

one-hybrid fitness for binding parS DNA, 0.636:
RWCC
